Laboratory results from the supplement of paper PMC10126150.
Values marked as one replicate rest on one cluster of the flow cell; about a third of the high ones do not repeat.

Test system: ATP
Test: switch fluorescence ratio, 500 uM ATP over buffer (Cy3 cluster intensity, sum of 5 cycles each) (fold (ratio)); higher = stronger signal-on switching upon ATP binding; sequences stand for … in TCGTCGGCAGCGTCAGATGTGTATAAGAGACAGTTTTTTTTTTTTTTTTTTTTTTTTT…TC
Conditions: aptamer strand: ATP DNA aptamer (quencher-CACCTGGGGGAGTATTGCGGAGGAAGG + anchor), 100 nM annealed; ATP concentration: 500 uM; one replicate
In short: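 The quencher-labelled ATP aptamer, at 100 nM, was annealed to Cy3-labelled switching-strand clusters on a modified Illumina MiSeq flow-cell. The clusters were imaged in selection buffer, then after 15 min with 500 uM ATP at 22 °C, and this buffer/ATP cycle ran five times with NaOH stripping and re-annealing between runs. Per-cluster fluorescence ratios, summed target-cycle over summed buffer-cycle Cy3 intensity, were averaged per switch-domain sequence. Clusters outside 100-1000 RFU were excluded.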
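Further: ATP exposure 15 min at 22 °C before imaging.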

Sequence	switch fluorescence ratio
CAAAGTATCT	0.998
TGCAGCGCTT	1.01
TGCAGTGTT	1.01
CAGTGTAAAC	0.996
CGCTTTAATC	1.22
GGAGCTTGGA	1
ATTATAATGA	0.987
AAGAGATTTC	1.03
CCTTTTATGC	1.29
TTACGTTATC	3.39
CGGGTTCTTA	1.01
ATATTGCGGC	1.01
ACTCTTGTGC	1
TTACGAAGGA	0.991
AGGTAAATCA	1.02
GTTCCTGATA	0.998
CCGGCATGGT	1.09
CTCAATTCGT	1.01
CGTCAAGGGG	1.02
TAATGATTC	1.05
TCGCCCCAGT	1.06
GGCTTCCCCG	4.36
TCATATGTCG	1.16
AGGAAGCAAA	1.11
ACGGGGAAT	1.01
GTGCGCGCCC	1.01

Sequence	switch fluorescence ratio
GCACGATGCC	1.03
TGATTTCTCA	1.02
TAAGTTGCGC	0.989
GTAACTAGGG	1
GGGTCCGGCT	0.968
GGCGTGCTCG	1.03
ACTTTGTGA	1.05
GTCACCTAGC	1.06
TAGCATATA	1.15
CCTGAGTCCC	1.68
AATGGGGCCA	1
TCTGCTCAGT	1.03
AAGGATCCTC	0.992
TATTCGCGGT	0.995
GGGGTAACTT	1.02
TAGGGGATGT	1.02
GGGGAAAAC	0.955
CCCGTGGTTC	1.02
ATACGGGTTA	1.01
CTTTGGGGTA	1.03
ATGATAAGTC	1.04
TATTCGTTGT	1.04
CCCCCGAATA	3.91
CACGGGACGA	1.05
AGAAGATTTG	1
TGTAATCCAG	0.987

Sequence	switch fluorescence ratio
TCTAAAAATA	0.967
ACTCGGTCCA	1.02
TTTTGTCTAG	1
AACGCTGGGC	1.02
ATATATGGCA	1.07
ATTGTGTCGG	0.966
GGAAAAGCGC	0.99
TCGGATCGAA	1
TAGCTGGTGA	1
GGTATGTATA	1.03
CACGGTGGGG	1
AGTTGTTAGC	1.04
CAGGCGCGCT	1.03
AGGCGAATG	0.952
ATAACTCGTA	1
GTAGAGTTTG	1.21
CCGGGGGCAC	1.61
ACTTGCGTGA	1.04
TGTTATTCTG	1.05
AAGTCGTGAG	1.05
CAGCAAACGG	1.79
ACTGGTCGCT	1.03
TTCGTCCGGG	0.973
AAAGAAGGAG	0.988
CCGTCCGCGG	3.38
GCTTGGATAG	1

Sequence	switch fluorescence ratio
TTGAGGGCAA	1.38
AGTTTGGTGA	1
AATCGTCACC	1.09
TAGGATTTT	1.02
GCGAGATCCC	1.34
TTAGTGCACG	0.981
TCAAGTCGAA	0.984
TAGAGGGTG	0.988
ACGTTGCGCT	0.997
TCAAAGGGT	1.02
ATTAAGCCTC	0.997
ACGCTGTGCT	1.04
TCTTCGGGAG	1.09
TGTCGCGGGT	1.02
CCTAGCCGAG	1.01
CTTTGGTGAC	1.06
AACGGAGAAG	1
GCCTTCTGGG	0.996
TAATCCGGGA	1.03
TGAGTGGTTT	0.998
CGATAATAGA	0.99
GGCTCATTAA	0.999
GGCTAGTTAA	0.98
TGCTATTTCC	1.06
TTTCTAACT	0.985
AGTTTCTCGT	1

Sequence	switch fluorescence ratio
CGAGTCACTC	1.03
GACGTTCGCT	0.997
TACTTTCAAG	1.04
GGTCCCGCAC	1.42
AATTATCTCC	1.08
GCATGCGTTT	0.996
AGACAAGTTG	0.856
CAGAATTGTT	0.976
TCGATTCGGA	1.03
GCGGTTCAAT	0.989
CACAATGGTA	0.995
AACATAAAGG	0.95
TTATCTGAAA	0.979
ATAAATCTGT	0.997
AGTCTCGACG	1.01
CAAACCGTTG	1.06
ACGGTTATC	1.08
CATATCGGCG	1.03
CCTAGATCGC	1.04
GCCGCGGTCC	1.37
GTTATCATGA	0.986
ATCCTGCTAT	1.05
AGGAATGTGT	0.917
GAGTTTAGAC	0.973
CACCGTAGAT	1.25
AGTCTACCGC	1.02

Sequence	switch fluorescence ratio
AATCTAATTA	0.98
AAATGCGTGG	0.989
TACCTGGTTG	0.986
ACAATTAGGG	0.991
ATAGACGGAC	1.28
CGCATCATGA	0.993
GCACTTCCAT	1.04
CCACGTGTCG	0.989
GGATCTACTA	0.985
AATTTGGTT	0.963
AGATTTAACC	1.06
TATGTACTTT	1.01
ATTGGGGACA	1.05
CATACAGCCT	1.06
CGGGGCGAGT	1.21
AAATCTTATT	1.01
CAGGATCGTA	0.954
TGCCTAGCTG	1.04
TTGTTT	1
TAGTCTCGGG	1.02
GATTTTTCGG	1.01
TTGAGCCCAA	1.03
CTGCAAGCA	1.67
TCGCACGAGC	1.26
AAGAGGTCGC	1.01
GTGGGGACGC	0.924

Sequence	switch fluorescence ratio
CCTATTCCGT	1.05
TAACAGTGTA	1.1
ATGTAATACC	1.12
TGGAAAGCGG	1.11
CGTACGTTAG	1.01
ATTGTGCTTC	0.987
TTACTCGACA	1.12
TTTGAATGAA	1
GTGGAACGAA	1.01
GCGCTGTTTT	1.31
ACGTACAATT	1.33
GGCATTTCGT	1.07
TTGTTGACT	1.02
TGGCAAACAA	1.07
ATTCTAAGAT	1.1
ATCGGAGCCC	1.05
TTTATATTCC	1.02
AAGGAGTGAA	0.962
GCTCGGCAGT	2.15
GGTGTCGGCG	1.05
AATGCTTCGG	0.977
GCTTTTTTCC	1.18
GGCAGAAAGG	1.01
CCAGATTCCG	1.07
CGTACAGCTT	1.06
GGAATGCGTA	1.05

Sequence	switch fluorescence ratio
GCGGTAGAAT	0.971
ACTAAAACGG	1.1
CGACTTAGCT	1.03
CAGTGGTGCG	0.93
TACCGTGACG	1.15
ACGCTGTTGC	1.06
ACGGTTTCGC	1.02
ACATTGAGG	1
TGTGCATTAT	1.01
GTTGAAGGCG	1.01
GGCCATACTT	1.03
ATGGTGGGGT	1.01
CTATTGCCAT	0.983
CGCGTCGGTT	1.06
CCGTCGCCAA	3.02
CCTCGAGCGG	2.07
TGGCAGTTAG	1.01
AACCAATCCT	1.15
GGTGGTTTAC	1.05
